Source: the supplement of paper PMC7826260
The list shows a part of the results. Each Rep nickase domain was tested in vitro on the same pool of single strands (1 h at 37 °C, 3 µM enzyme); the outer parts of the 90-letter strands are left off. Numbers give uncut DNA relative to the enzyme-free pool, as log2; strong cutting gives strongly negative numbers. There is no active / inactive call. Reads are scaled to the total; where an enzyme cuts many sequences, the uncut ones exceed 0.

Experiments:
Assay in all cases: uncleaved DNA left, log2 of reads against the no-enzyme library (log2 ratio); higher = less cleavage (more negative = more Rep cleavage of the k-mer); sequences stand for … in CTCGTCCG…ACCGGAGA
[1] = test system: T1, Rep nickase domain of Muscovy duck circovirus
T1 sequence (protein, residues 1-111, tag omitted): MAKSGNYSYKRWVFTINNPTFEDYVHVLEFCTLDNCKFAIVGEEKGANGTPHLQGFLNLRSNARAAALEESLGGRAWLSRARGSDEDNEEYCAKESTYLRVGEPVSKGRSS
Protocol: (§1)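 A pool of 90-nt single-stranded DNAs with seven random bases just before the constant AC of the nick site (name = the seven bases) was cut by 3 µM recombinant His6-SUMO-tagged Rep nickase domain (300 nM DNA, 50 mM HEPES pH 8.0, 50 mM NaCl, 1 mM MnCl2, 1 h, 37 °C, three replicates). Uncut DNA was amplified and sequenced.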

[2] = test system: T2, Rep nickase domain of banana bunchy top virus
T2 sequence (protein, residues 1-94, tag omitted): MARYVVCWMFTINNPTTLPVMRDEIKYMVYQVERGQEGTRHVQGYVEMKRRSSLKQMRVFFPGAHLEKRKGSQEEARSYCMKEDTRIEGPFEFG
Protocol: as §1

[3] = test system: T3, Rep nickase domain of cabbage leaf curl virus
T3 sequence (protein, residues 1-116, tag omitted): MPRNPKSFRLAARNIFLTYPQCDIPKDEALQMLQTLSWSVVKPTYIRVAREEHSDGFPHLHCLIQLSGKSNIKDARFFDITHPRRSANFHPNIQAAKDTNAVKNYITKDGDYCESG
Protocol: as §1

[4] = test system: T4, Rep nickase domain of chickpea chlorotic dwarf virus
T4 sequence (protein, residues 1-124, tag omitted): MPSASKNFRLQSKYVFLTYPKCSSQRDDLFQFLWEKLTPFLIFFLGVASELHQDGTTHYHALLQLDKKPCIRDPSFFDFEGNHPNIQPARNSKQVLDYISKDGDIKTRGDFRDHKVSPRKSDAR
Protocol: as §1

[5] = test system: T5, Rep nickase domain of faba bean necrotic yellows virus
T5 sequence (protein, residues 1-98, tag omitted): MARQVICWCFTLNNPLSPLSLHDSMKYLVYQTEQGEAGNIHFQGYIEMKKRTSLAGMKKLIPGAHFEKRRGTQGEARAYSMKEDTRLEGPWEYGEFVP
Protocol: as §1

[6] = test system: T6, Rep nickase domain of maize striate mosaic virus
T6 sequence (protein, residues 1-117, tag omitted): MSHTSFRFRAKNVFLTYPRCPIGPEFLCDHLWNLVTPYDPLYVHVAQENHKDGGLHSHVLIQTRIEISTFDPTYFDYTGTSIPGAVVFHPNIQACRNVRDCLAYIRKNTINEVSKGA
Protocol: as §1

[7] = test system: T7, Rep nickase domain of porcine circovirus 2
T7 sequence (protein, residues 2-116, tag omitted): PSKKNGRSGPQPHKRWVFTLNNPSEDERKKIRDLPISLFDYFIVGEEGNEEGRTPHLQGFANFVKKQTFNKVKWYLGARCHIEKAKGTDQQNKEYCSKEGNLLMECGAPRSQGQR
Protocol: as §1

[8] = test system: T8, Rep nickase domain of tomato golden mosaic virus
T8 sequence (protein, residues 1-124, tag omitted): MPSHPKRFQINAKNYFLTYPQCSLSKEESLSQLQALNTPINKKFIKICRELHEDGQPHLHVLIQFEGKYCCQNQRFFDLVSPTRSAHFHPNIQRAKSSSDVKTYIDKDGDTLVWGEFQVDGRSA
Protocol: as §1

[9] = test system: T9, Rep nickase domain of tomato yellow leaf curl virus
T9 sequence (protein, residues 1-136, tag omitted): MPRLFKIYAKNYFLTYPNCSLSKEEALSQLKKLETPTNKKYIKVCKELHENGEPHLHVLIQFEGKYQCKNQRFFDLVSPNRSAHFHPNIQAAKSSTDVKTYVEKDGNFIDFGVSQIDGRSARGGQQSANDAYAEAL
Protocol: as §1

[10] = test system: T10, Rep nickase domain of wheat dwarf virus
T10 sequence (protein, residues 1-137, tag omitted): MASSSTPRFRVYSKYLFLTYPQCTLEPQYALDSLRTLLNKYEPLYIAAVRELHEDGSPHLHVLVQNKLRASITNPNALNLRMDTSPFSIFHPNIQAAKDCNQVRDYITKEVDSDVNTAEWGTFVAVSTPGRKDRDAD
Protocol: as §1

| Sequence | uncleaved DNA left (log2) [1] | uncleaved DNA left (log2) [2] | uncleaved DNA left (log2) [3] | uncleaved DNA left (log2) [4] | uncleaved DNA left (log2) [5] | uncleaved DNA left (log2) [6] | uncleaved DNA left (log2) [7] | uncleaved DNA left (log2) [8] | uncleaved DNA left (log2) [9] | uncleaved DNA left (log2) [10] |
| --- | --- | --- | --- | --- | --- | --- | --- | --- | --- | --- |
| GCTATTT | -0.232 | -0.261 | -0.104 | -1.09 | -0.0988 | 0.0594 | -0.333 | -0.159 | -0.176 | -0.198 |
| AAATCAA | 0.0312 | 0.25 | 0.288 | 0.39 | 0.126 | 0.221 | 0.131 | 0.152 | 0.162 | 0.231 |
| AAGGATC | 0.0351 | -0.0477 | 0.198 | 1.24 | -0.0814 | 1.26 | 0.207 | 0.108 | -0.181 | -0.0922 |
| TAGGCGC | -0.103 | -0.153 | -0.867 | -0.937 | -0.0955 | -0.904 | -0.118 | -0.0831 | -0.182 | -0.335 |
| AATTTAC | -0.0701 | 0.00948 | -0.209 | -2.4 | -0.00597 | -1.04 | -0.161 | -0.0995 | 0.00448 | -0.098 |
| GTTGGGT | -0.0831 | -0.161 | 0.0594 | 0.595 | -0.0619 | 0.585 | -0.0389 | 0.0228 | 0.0416 | -0.142 |
| GTGGAAA | -0.0448 | 0.0658 | 0.413 | 1.29 | 0.048 | 2.02 | 0.0959 | -0.0384 | 0.103 | 0.242 |
| GAGCCGC | -0.136 | 0.00615 | -0.271 | -0.0913 | -0.113 | -0.511 | 0.0265 | -0.0378 | 0.016 | -0.0632 |
| GCTAGTT | -0.0189 | 0.0821 | 0.238 | -0.25 | 0.0527 | 0.436 | 0.0994 | 0.0709 | 0.0433 | 0.0422 |
| TCTCGAA | 0.0981 | -0.0442 | 0.123 | -0.21 | 0.0385 | -0.583 | 0.016 | 0.000207 | -0.162 | -0.0406 |
| TTCATAG | 0.0389 | 0.0278 | -0.688 | -0.689 | 0.0585 | -1.33 | 0.196 | -0.0199 | 0.0983 | -0.0452 |
| AGCAGCA | -0.0486 | 0.12 | -0.162 | 0.0504 | -0.0538 | -0.231 | -0.285 | -0.0164 | 0.0475 | 0.033 |
| ATTTCAA | -0.107 | -0.0274 | -0.000607 | -0.22 | 0.0117 | -0.624 | -0.0533 | -0.0236 | -0.0497 | 0.126 |
| TAAATCT | -0.199 | -0.195 | -4.38 | -3.46 | 0.011 | -3.21 | -2.02 | -3.8 | 0.0156 | -4.11 |
| GAAGATT | 0.152 | 0.0687 | -0.337 | -1.41 | 0.264 | 1.43 | -0.25 | 0.0941 | 0.0221 | -0.0127 |
| CCCGGAT | -0.067 | 0.0635 | 0.387 | 1.58 | 0.0825 | 1.83 | 0.135 | -0.029 | -0.0667 | 0.0155 |
| GGGTCAA | 0.0971 | 0.155 | 0.966 | 2.04 | -0.0598 | 2.26 | 0.175 | -0.00442 | 0.0252 | 0.119 |
| CGGCGCA | -0.119 | -0.0163 | -0.0899 | 0.341 | -0.0887 | 0.693 | -0.015 | 0.123 | -0.032 | -0.129 |
| TAGGGCC | 0.0768 | 0.031 | 0.267 | 0.686 | 0.0111 | 0.886 | -0.0723 | 0.122 | 0.0207 | 0.0612 |
| TGTCACT | -0.00476 | 0.0512 | 0.231 | -1 | -0.188 | 0.547 | -1.25 | -0.0711 | 0.0217 | -0.00459 |
| TCGGGTT | -0.11 | -0.112 | 0.153 | 0.325 | -0.0368 | 1.32 | 0.0282 | -0.0172 | -0.0903 | -0.0844 |
| ATTCTCA | -0.106 | 0.0298 | -0.00606 | -1.21 | 0.0257 | -0.422 | -0.182 | 0.0498 | 0.241 | 0.268 |
| CAGGAAG | -0.0831 | 0.0326 | -0.589 | -0.442 | 0.0455 | -0.875 | 0.102 | 0.0467 | -0.0319 | -0.0575 |
| ATTTCCC | -0.177 | -0.127 | -0.124 | -0.418 | -0.0638 | -0.501 | -0.285 | -0.1 | -0.124 | -0.0996 |
| TGTTTCT | -1.78 | -0.0841 | 0.235 | -0.77 | 0.00103 | 0.756 | -1.19 | -0.0757 | 0.0454 | -0.0285 |
| TTTGTCT | 0.0585 | -0.0253 | -0.192 | -2.01 | -0.0865 | -0.941 | -0.196 | -0.0958 | -0.0227 | -0.137 |
| GCGCGAC | 0.00776 | -0.0715 | 0.0473 | 0.529 | -0.0692 | 0.225 | 0.0671 | -0.0477 | -0.0684 | -0.0101 |
| GTACAGG | -0.0827 | -0.0667 | 0.417 | 1.15 | 0.0236 | 1.49 | 0.146 | 0.0585 | 0.00687 | 0.0483 |
| GGTAAAT | 0.0726 | 0.098 | 0.813 | 1.91 | -0.0203 | 2.12 | 0.246 | 0.00728 | 0.163 | 0.181 |
| CTCGAAT | 0.0458 | -0.0565 | 0.0458 | -0.451 | -0.131 | -0.591 | -1.23 | -0.084 | -0.135 | -0.0141 |
